# Data from PubChem BioAssay (NCATS).
# This list was built around the results that the source calls inconclusive (neither active nor inactive); the mix of calls is not that of the screen. For part of these data: Where the call is inconclusive, the potency comes from a doubtful curve fit. The source made the active and inactive calls. Unless noted, calls follow the shape of the dose curve; as a rule, active = well fitted curve in the direction sought with a large enough effect; inconclusive = small, poorly fitted or top-dose-only effect, or another doubt; inactive = no such curve, though single readings can be large; an effect the other way counts as inactive or inconclusive.
# How the values were obtained:
# [1] = qHTS of pediatric cancer cell lines to identify multiple opportunities for drug repurposing: Primary screen for BT-37 cells (AID 1347094)
# How it was run: (§1)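 Cells plated at 500-1,000/well in growth medium, compounds added after 5 h. MIPE tested at 11 points (from 0.78 nM), NPC at 8 points (from 0.59 nM). CellTiter-Glo luminescence after 48 h; concentration-response curves from primary screen.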
# [2] = qHTS of pediatric cancer cell lines to identify multiple opportunities for drug repurposing: Primary screen for Saos-2 cells (AID 1347097); also: nearly all actives have a fitted effect of over 40% in size
# How it was run: as §1
# [3] = qHTS of pediatric cancer cell lines to identify multiple opportunities for drug repurposing: Primary screen for SK-N-SH cells (AID 1347098); also: nearly all actives have a fitted effect of over 65% in size
# How it was run: (§2)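 Cells (500-1,000/well) rested 5 h, then received compounds for 48 h; metabolically active cells were measured by CellTiter-Glo luminescence. Final concentrations spanned up to 46 µM (MIPE, 11-point) or 0.59 nM-46 µM (NPC, 8-point) in primary screens, 11-point in follow-ups.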
# [4] = qHTS of pediatric cancer cell lines to identify multiple opportunities for drug repurposing: Primary screen for BT-12 cells (AID 1347101); also: nearly all actives have a fitted effect of over 25% in size;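 as to activity change, negative = cytotoxic: plate controls were DMSO for no effect and bortezomib positive control for full effect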
# How it was run: as §2
# [5] = qHTS of pediatric cancer cell lines to identify multiple opportunities for drug repurposing: Primary screen for Rh18 cells (AID 1347102); also: nearly all actives have a fitted effect of over 65% in size; as to activity change, negative = cytotoxic: % is scaled to controls: 0 for no effect and ±100 for the full control effect
# How it was run: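 Viability after 48 h compound treatment at 37C, 500-1,000 cells/well, read as ATP luminescence with CellTiter-Glo. Primary screens used 11-point (MIPE, 0.78 nM-46 µM) or 8-point (NPC, 0.59 nM-46 µM) final concentrations; follow-up screens used 11-point dilutions.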
# [6] = qHTS of pediatric cancer cell lines to identify multiple opportunities for drug repurposing: Primary screen for OHS-50 cells (AID 1347103); also: nearly all actives have a fitted effect of over 40% in size;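 as to activity change, negative = cytotoxic: plate controls were DMSO neutral control for no effect and bortezomib positive control for full effect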
# How it was run: as §2
# [7] = qHTS of pediatric cancer cell lines to identify multiple opportunities for drug repurposing: Primary screen for RD cells (AID 1347104); settings: RD rhabdomyosarcoma viability, CellTiter-Glo luminescence, 48 h; activity change, negative = cytotoxic: at 46 µM (top of the series); also: nearly all actives have a fitted effect of over 55% in size;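 as to activity change, negative = cytotoxic: plate controls were DMSO for no effect and bortezomib for full effect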
# How it was run: as §1
# JEG-3 = experiment: Primary qHTS to identify gynecologic anti-cancer compounds using libraries of approved drugs and bioactive compounds (AID 1345084); settings: Gynecologic cancer cell panel viability, ATPlite luminescence, 48 h; series mostly up to 57.5 µM; also: nearly all actives have a fitted effect of over 55% in size
# How it was run: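 Five-point cytotoxicity, 48 h drug exposure at 37 C, 5% CO2, on cells seeded 16 h beforehand. ATP content read by ATPlite luminescence.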
# MKL-1 = experiment: qHTS assay to identify novel small-molecules to repurpose for Merkel cell carcinoma treatment (AID 1296009); settings: MCC and control cell lines, CellTiter-Glo viability, 72 h; activity change, negative = cytotoxicity: at 46 µM (top of the series); also: nearly all actives have a fitted effect of over 60% in size; as to activity change, negative = cytotoxicity: % is scaled to controls: 0 for no effect and ±100 for the full control effect
# How it was run: (§3)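 Dose-response viability screen; 72 hr exposure at 37 degree celsius; CellTiter-Glo added, 10 min room temperature, luminescence read; RLUs scaled between no-cell and DMSO wells.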
# UISO = experiment: as above; settings: MCC and control cell lines, CellTiter-Glo viability, 72 h; activity change, negative = cytotoxicity: at 46 µM (top of the series)
# How it was run: as §3
# WaGa = experiment: as above; settings: MCC and control cell lines, CellTiter-Glo viability, 72 h; series mostly up to 46 µM
# How it was run: as §3
# [8] = A High-Content qHTS Against Drug Library for the Identification of Small Molecules that Inhibit DYT1 Early Onset Primary Dystonia-Associated Cell Pathology (AID 1645839; calls by dose curve)
# How it was run: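 Cells were seeded and left for 24 h, then dosed with compound alongside tetracycline induction of mutant EGFP-TorsinA. They were incubated for 48 h, fixed in 4% paraformaldehyde, permeabilized and imaged for mislocalization (%pathology) and cell count.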
# [9] = molecular target: Cytochrome P450 2C9 (Homo sapiens) (UniProt P11712); experiment: Cytochrome P450 family 2 subfamily C member 9 (CYP2C9) small molecule antagonists: luciferase biochemical (cell-free) qHTS assay (AID 1645842; active = well fitted curve in the direction sought with a large enough effect in the repeat runs; inconclusive = weak or mixed curves; inactive = no such curve, though single readings can be large; an effect the other way counts as inactive or inconclusive; also: nearly all actives have a fitted effect of over 55% in size)
# How it was run: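 P450-Glo CYP2C9 system: proluciferin substrate with enzyme in mix containing 0.4% BSA, 10 min at room temperature, then NADPH regeneration solution added and incubated 1 h at 37C. Detection reagent stopped reaction; luminescence read after 20 min as RLU.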
# [10] = tested on: Zika virus NS2B-NS3 protease (linked construct); experiment: Primary screen NINDS Rhodamine qHTS for Zika virus inhibitors (AID 1347160); settings: activity change, negative = inhibition: at 57.1 µM (top of the series) unless noted; also: nearly all actives have a fitted effect of over 55% in size; as to activity change, negative = inhibition: % is scaled to controls: 0 for no effect and ±100 for the full control effect
# How it was run: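 Aprotinin served as in-plate control. Conditions: 25 nM linked NS2B-NS3, pH 8.0 Tris buffer, titrated compounds, 15 min preincubation and 15 min reaction with 1.5 microM Rhod110 substrate at room temperature.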
# [11] = molecular target: Phospholipid hydroperoxide glutathione peroxidase GPX4 (Homo sapiens) (UniProt P36969); experiment: Primary qHTS Assay for Inhibitors of Recombinant Selenoprotein Glutathione Peroxidase 4 (GPX4) (AID 1845192); also: nearly all actives have a fitted effect of over 65% in size
# How it was run: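 Steps: GPX4 plus compound, 30 min RT; add GR/GSH/NADPH master mix; start with cumene hydroperoxide; read 340/450 nm fluorescence at 0 and 15 min. Finals were 200 nM GPX4, 1 mM GSH, 0.5 mM CHP, 0.5 mM NADPH, 100 nM GR.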
# MKL-2 = experiment: qHTS assay to identify novel small-molecules to repurpose for Merkel cell carcinoma treatment (AID 1296009); settings: MCC and control cell lines, CellTiter-Glo viability, 72 h; activity change, negative = cytotoxicity: at 46 µM (top of the series); also: nearly all actives have a fitted effect of over 60% in size; as to activity change, negative = cytotoxicity: % is scaled to controls: 0 for no effect and ±100 for the full control effect
# How it was run: as §3
# [12] = qHTS of pediatric cancer cell lines to identify multiple opportunities for drug repurposing: Primary screen for Rh41 cells (AID 1347108); also: nearly all actives have a fitted effect of over 70% in size
# How it was run: as §1
# [13] = Drug repurposing screens with cells derived from glioblastoma tumor samples (AID 1345199); settings: GBM patient neurospheres viability, ATP luminescence, 48 h; Potency: tumour line A unless noted; activity, negative = cell killing: at 46 µM (top of the series), tumour line A unless noted; also: nearly all actives have a fitted effect of over 40% in size
# How it was run: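 Primary testing used CD133+ neurospheres from four GBM patients, seven concentrations, 48 h exposure and ATP-based viability; confirmation added three slower-growing patient lines.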
# [14] = qHTS of pediatric cancer cell lines to identify multiple opportunities for drug repurposing: Primary screen for SK-N-MC cells (AID 1347093); settings: SK-N-MC viability, CellTiter-Glo luminescence, 48 h; activity change, negative = cytotoxic: at 46 µM (top of the series)
# How it was run: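 Metabolically active cells were quantified by ATP-dependent luminescence (CellTiter-Glo, 15 min at room temperature) following 48 h treatment. Cells had been plated at 500-1,000 per well and settled for 5 h beforehand.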
# Potency is read from the fitted curve at half-maximal effect; tags tell the direction and shape of the fitted curve.
# Chain of UniProt P36969 (P36969 whole entry, looked up): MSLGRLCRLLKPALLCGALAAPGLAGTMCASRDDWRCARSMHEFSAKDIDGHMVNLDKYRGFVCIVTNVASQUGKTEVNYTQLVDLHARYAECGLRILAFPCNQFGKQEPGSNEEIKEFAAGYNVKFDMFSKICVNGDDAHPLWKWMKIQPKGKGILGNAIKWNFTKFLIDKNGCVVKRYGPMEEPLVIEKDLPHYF
# Chain of UniProt P11712 (P11712 whole entry, looked up): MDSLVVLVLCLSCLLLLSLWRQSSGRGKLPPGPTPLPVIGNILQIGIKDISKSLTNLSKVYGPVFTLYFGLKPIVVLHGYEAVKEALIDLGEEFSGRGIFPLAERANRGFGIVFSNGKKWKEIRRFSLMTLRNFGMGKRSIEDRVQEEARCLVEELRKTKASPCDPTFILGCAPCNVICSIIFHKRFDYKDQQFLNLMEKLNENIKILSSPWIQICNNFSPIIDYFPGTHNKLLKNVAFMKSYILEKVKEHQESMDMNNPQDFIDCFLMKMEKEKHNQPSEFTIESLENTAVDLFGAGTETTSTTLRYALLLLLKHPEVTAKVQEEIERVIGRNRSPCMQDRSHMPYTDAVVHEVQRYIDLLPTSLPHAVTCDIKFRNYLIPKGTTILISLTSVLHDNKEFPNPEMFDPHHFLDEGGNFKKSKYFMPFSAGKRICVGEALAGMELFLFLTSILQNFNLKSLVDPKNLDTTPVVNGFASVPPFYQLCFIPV
smiles,measurement,setting,value
CCc1ccc(C(=O)Nc2cc(CN3CCN(C)CC3)cc(C(F)(F)F)c2)cc1C#Cc1cnc2ccnn2c1,Potency,[1],active: 24.3 µM
same,Potency,[2],active: 14.8 µM
same,Potency,[3],active: 24.1 µM
same,Potency,[4],active: 27.3 µM
same,Potency,[5],active: 14.8 µM
same,Potency,[6],active: 12.2 µM
same,Potency,[7],active: 18.7 µM
same,Potency,JEG-3,"inconclusive: 39.8 µM [cytotoxic, single point]"
same,Potency,MKL-1,"inconclusive: 26.4 µM [inhibitor, single point]"
same,Potency,UISO,"inconclusive: 26.4 µM [inhibitor, single point]"
same,Potency,WaGa,"inconclusive: 18.7 µM [inhibitor, single point]"
COc1cccc(-c2cc(NCc3ccc4c(c3)OCO4)nc(N)n2)c1,Potency,JEG-3,active: 1.41 µM
CC(C)(Oc1ccc(CCNC(=O)c2ccc(Cl)cc2)cc1)C(=O)O,Potency,[2],"inconclusive: 7.5 µM [cytotoxic, partial curve]"
same,Potency,[5],inactive
same,Potency,[6],inactive
same,Potency,[8],inactive
same,Potency,[9],"inconclusive: 24.5 µM [inhibitor, single point]"
same,Potency,MKL-1,inactive
O=C1c2c(O)cccc2Cc2cccc(O)c21,Potency,[8],inactive
same,Potency,MKL-1,inactive
CC[C@]1(O)CC2CN(CCc3c([nH]c4ccccc34)[C@@](C(=O)OC)(c3cc4c(cc3OC)N(C)[C@H]3[C@@](O)(C(=O)OC)[C@H](OC(C)=O)[C@]5(CC)C=CCN6CC[C@]43[C@@H]65)C2)C1 (stereo partly specified),Potency,[10],inactive
same,Potency,[11],"inconclusive: 18 µM [inhibitor, single point]"
same,Potency,JEG-3,"inconclusive: 0.708 µM [cytotoxic, full curve]"
Cc1cc2c(cc1CC(=O)c1sccc1S(=O)(=O)Nc1onc(C)c1Cl)OCO2,Potency,[2],inactive
same,Potency,[10],"inconclusive: 17.8 µM [inhibitor, partial curve]"
same,Potency,[8],inactive
same,Potency,[9],"inconclusive: 6.01 µM [inhibitor, single point]"
same,Potency,[11],"inconclusive: 22.7 µM [inhibitor, partial curve]"
same,Potency,JEG-3,inactive
same,Potency,MKL-2,inactive
O=C(Oc1cccc2cccnc12)c1ccccc1,Potency,[3],"inconclusive: 8.64 µM [cytotoxic, partial curve, poor fit]"
same,Potency,[4],active: 6.17 µM
same,Potency,[5],"inconclusive: 33.5 µM [cytotoxic, single point]"
same,Potency,[6],"inconclusive: 38.9 µM [cytotoxic, single point]"
same,Potency,[7],"inconclusive: 2.66 µM [cytotoxic, full curve, poor fit]"
same,Potency,[12],"inconclusive: 1.68 µM [cytotoxic, full curve, poor fit]"
same,Potency,[13],"inconclusive: 39.8 µM [inhibitor, partial curve, poor fit]"
same,Potency,MKL-2,"inconclusive: 3.76 µM [inhibitor, full curve, poor fit]"
same,Potency,UISO,"inconclusive: 5.31 µM [inhibitor, full curve, poor fit]"
same,Potency,WaGa,"inconclusive: 8.41 µM [inhibitor, partial curve, poor fit]"
CO[C@@]1(NC(=O)CSC[C@@H](N)C(=O)O)C(=O)N2C(C(=O)O)=C(CSc3nnnn3C)CS[C@@H]21,Potency,[2],"inconclusive: 33.5 µM [cytotoxic, single point]"
same,Potency,[7],inactive
same,Potency,[11],"inconclusive: 31.6 µM [inhibitor, single point]"
same,Potency,MKL-2,inactive
same,Potency,UISO,inactive
O=[N+]([O-])c1nccn1CO[C@@H](CO)[C@H](O)CO,Potency,[2],inactive
same,Potency,[8],inactive
same,Potency,[13],"inconclusive: 0.112 µM [inhibitor, full curve]"
C[C@@H]1CC[C@@]2(OC1)O[C@H]1C[C@H]3[C@@H]4CC[C@H]5C[C@@H](O)CC[C@]5(C)[C@H]4CC(=O)[C@]3(C)[C@H]1[C@@H]2C,"activity change, negative = cytotoxic",[4],inactive: 6.34% [at 6.03 µM]
same,Potency,[13],"inconclusive: 12.6 µM [inhibitor, partial curve, poor fit]"
same,Potency,UISO,"inconclusive: 0.015 µM [inhibitor, full curve]"
CC[C@@]1(O)C(=O)OCc2c1cc1n(c2=O)Cc2c-1nc1ccccc1c2/C=N/OC(C)(C)C,Potency,[14],active: 0.0211 µM
same,Potency,[1],active: 0.0309 µM
same,Potency,[5],"inconclusive: 0.15 µM [cytotoxic, full curve]"
same,Potency,[8],"inconclusive: 0.316 µM [inhibitor, full curve, poor fit]"
same,Potency,[9],"inconclusive: 12.3 µM [inhibitor, partial curve]"
same,Potency,[11],active: 12.6 µM
same,Potency,UISO,active: 0.168 µM
C[C@@H]1CCC[C@H](C)N1,Potency,[6],inactive
same,Potency,[8],inactive
same,Potency,MKL-2,inactive
O=C1c2cccc3c2[C@H](CCC3)CN1[C@@H]1CN2CCC1CC2,Potency,[14],"inconclusive: 11.9 µM [cytotoxic, partial curve, poor fit]"
same,Potency,[1],"inconclusive: 30.9 µM [cytotoxic, partial curve, poor fit]"
same,Potency,[6],"inconclusive: 15.5 µM [cytotoxic, partial curve]"
same,Potency,[13],active: 11.2 µM [tumour line D]
same,Potency,MKL-2,inactive
